# Measured values published in PubChem BioAssay (NCATS).
# This list was built around the results that the source calls inconclusive (neither active nor inactive); the mix of calls is not that of the screen. Potencies of inconclusive entries are doubtful fits and often do not repeat. The source made the active and inactive calls. Calls follow the shape of the dose curve; as a rule, active = well fitted cell-killing curve with a large enough effect; inconclusive = small, poorly fitted or top-dose-only effect, or effect the other way; inactive = flat fitted curve, though single readings scatter.
# Test system: Es-2
# Assay: Primary qHTS to identify gynecologic anti-cancer compounds using libraries of approved drugs and bioactive compounds (AID 1345084); also: nearly all actives have a fitted effect of over 55% in size
# Settings: Gynecologic cancer cell panel viability, ATPlite luminescence, 48 h; series mostly up to 57.5 µM; activity change, negative = cytotoxicity: at the top concentration
# Procedure, shortened: (§1)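 Cells, 1,000 per well, plated 16 h, then exposed 48 h at 37 C to compounds. Viability by ATPlite luminescence after 15 min at room temperature.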
# % is scaled to controls: 0 for no effect and ±100 for the full control effect; potency is read from the fitted curve at half-maximal effect; tags tell the direction and shape of the fitted curve.
SMILES,Potency,"activity change, negative = cytotoxicity"
O=C(NCCCn1ccnc1)c1cc(-c2ccco2)on1,"inconclusive: 31.6 µM [cytotoxic, partial curve, poor fit]",
C/C=C/c1cc(OC)c2c(c1)[C@@H](C)[C@@H](c1ccc(O)c(OC)c1)O2,,inactive: 1.13% [at 38.5 µM]
OC[C@H]1O[C@@H](OCCc2ccccc2)[C@H](O[C@@H]2OC[C@@H](O)[C@H](O)[C@H]2O)[C@@H](O)[C@@H]1O,,inactive: -0.052% [at 25.3 µM]
CC(=O)OC1C(OC(=O)c2ccccc2)C2C(C)(C)CCC(OC(C)=O)C2(C)C23CCC(C)(C2)C(=O)CC13 (stereo unspecified),,inactive: -1.98% [at 25.3 µM]
CC(=O)O[C@H]1[C@@]2(O)C[C@H](C)[C@H](OC(=O)c3ccccc3)[C@@H]2[C@@H](OC(=O)CO)[C@]2(OC(C)=O)C[C@H]3C(=O)C(C)(C)C[C@@H]3[C@@]1(C)[C@H]2OC(C)=O,"inconclusive: 10 µM [cytotoxic, single point]",
CC(C)[C@@H](c1ccc(C(F)(F)F)cc1CN(Cc1cc(C(F)(F)F)cc(C(F)(F)F)c1)c1nnn(C)n1)N1CCC(C(=O)O)CC1,,inactive: 0.491%
CN(CCCOc1ccc(Cc2ccccc2)cc1)CCC(=O)O,,inactive: 4.92%
CN(C)c1ccc(NC(=O)NS(=O)(=O)c2ccc(Cl)cc2)cc1,,inactive: -6.71%

# Test system: HeLa
# Assay: as above
# Settings: Gynecologic cancer cell panel viability, ATPlite luminescence, 48 h; activity change, negative = cytotoxicity: at 57.5 µM (top of the series)
# Procedure, shortened: as §1
SMILES,"activity change, negative = cytotoxicity",Potency
CCCCc1ccc(NS(=O)(=O)c2ccc(F)cc2)cc1,inactive: 0.574%,
OC[C@H]1O[C@@H](OCCc2ccccc2)[C@H](O[C@@H]2OC[C@@H](O)[C@H](O)[C@H]2O)[C@@H](O)[C@@H]1O,inactive: 4.93% [at 25.3 µM],
CC(=O)[C@H]1CC[C@H]2[C@@H]3C=CC4=CC(=O)CC[C@@]4(C)[C@@H]3CC[C@]12C,,"inconclusive: 39.8 µM [cytotoxic, single point]"
O=C(O)[C@H]1Cc2ccccc2CN1,inactive: 1.2% [at 6.55 µM],
O=C(NC1CCN(CCc2c[nH]c3ccccc23)CC1)c1ccccc1,,"inconclusive: 39.8 µM [cytotoxic, partial curve, poor fit]"

# Test system: Hek293T
# Assay: as above
# Settings: Gynecologic cancer cell panel viability, ATPlite luminescence, 48 h, control line for the selectivity index; activity change, negative = cytotoxicity: at 57.5 µM (top of the series) unless noted
# Procedure, shortened: as §1
SMILES,Potency,"activity change, negative = cytotoxicity"
NC(=O)c1cccc(-c2cc(OC(=O)NC3CCCCC3)ccc2O)c1,inconclusive: 44.7 µM,
CC(O)(CC(=O)O)CC(=O)OCc1ccc(O[C@@H]2O[C@H](CO)[C@@H](O)[C@H](O)[C@H]2O)cc1 (stereo partly specified),,inactive: 2.69% [at 25.3 µM]
CN1C(=O)CC(c2ccccc2)C1=O (stereo unspecified),,inactive: 16.1%
COc1ccc(NC(=O)c2ccc(-c3ccc(-c4nnc(C)o4)cc3C)cc2)cc1N1CCN(C)CC1,,inactive: 1.35%
O=c1[nH]ccc2nc(-c3ccc(CN4CCC(c5nc(-c6ccccn6)n[nH]5)CC4)cc3)c(-c3ccccc3)cc12,"inconclusive: 25.1 µM [cytotoxic, partial curve, poor fit]",
CC(=O)[C@H]1CC[C@H]2[C@@H]3C=CC4=CC(=O)CC[C@@]4(C)[C@@H]3CC[C@]12C,"inconclusive: 17.8 µM [cytotoxic, partial curve, poor fit]",
COC(=O)[C@H](Cc1ccc([N+](=O)[O-])cc1)NC(=O)c1cccc2ccccc12,,inactive: 14.9%
CN1CCc2cc3c(cc2C(=O)Cc2cc4c(cc2C1)OCO4)OCO3,,inactive: 1.14% [at 38.5 µM]
